Data taken from paper PMC12136788.
The other results are listed elsewhere or left out.

B1: 57965999_57966431_1852_CDS_ENSG00000155980_ENST00000455537|human|control|control (ssRNA)
RNA: GGGAGUUCUACAGUCCGACGAUCUCGUUUUCGCUGGUGUCCACUGACCUCCUGUAGCCGCUGCAACUCAGACUCCAGGGACAGCAUGGUGGCCACCUUCUGAGACAGCUCAUCCACCAGAAGCUGGUUCUGCUGGCUCUUCUCCAACAGAGGAUUGAGCAUCA
B2: chr9:51896463:51896464:+_ENSMUSG00000032050_ENSMUST00000163153|mus_hu|FALSE|FALSE (ssRNA)
RNA: GGGAGUUCUACAGUCCGACGAUCUUUCAAUACUGUAUCAAACUGAUGUAGCUAUGGUAGUGCACAUAAUUCAAAAUGAGGAAAAUUAACAAAAAUCCAAUGAAAGUUCAGGUUUUUAUCUAUUAUGCAAUUGCUUUAAAGUGACAACAGAGGAUUGAGCAUCA
B3: chr4:134969704:134969705:-_ENSMUSG00000059713_ENSMUST00000030606|mus_mus|FALSE|FALSE (ssRNA)
RNA: GGGAGUUCUACAGUCCGACGAUCACUCCCAUGGUUUAAUUAUGCGUAAAGCUUUCCUCUGAAAACCAAAUCCUCCAGUCUAAAAAUAGUUUACAUAAAAAUAUAAAGCCCAGGCCCACCGUUAGUCUGGAAUAGAACUUGAUUCAACAGAGGAUUGAGCAUCA
B4: chr8:117878989:117878990:-_ENSG00000164754_ENST00000297338|hu_hu|hu_hu_hu_mus_True|68_108 (ssRNA)
RNA: GGGAGUUCUACAGUCCGACGAUCCCAGAGGCCCUCUUUUACUGAGGACAAAAUGUGCGUAGAACAUUGUUCUGGCUUGCUAUGAAAUAAGAAGAAACCUGGAUCUCGGCGGGGAGCCGGGAGGGGUGGGUGGCCCGGGGAGGGCAACAGAGGAUUGAGCAUCA
B5: chr2:202488911:202488912:-_ENSG00000155755_ENST00000286196|hu_mus|hu_hu_hu_mus_False|1_78 (ssRNA)
RNA: GGGAGUUCUACAGUCCGACGAUCAUUGAAACAUUUUUCAUAAUCUCCAGUAGCAUUCAGUAUUAUAGUAACAAAAGCUCAAUUGUAAAUACAUGUAUCUUAUAAAAAUACACUUAAAAACACGAGUGGGGAGCGCACAAAUACCAACAGAGGAUUGAGCAUCA
B6: 123907180_123907584_1593_CDS_ENSG00000119397_ENST00000373850|human|control|control (ssRNA)
RNA: GGGAGUUCUACAGUCCGACGAUCAAUUUCUAGGACCUGUGAGUUUGCUCCAGUACCUACACCUGUUUUCUCCAUCUCAAGUCGAAACUGCUCCCCCUUCUGCCUGAGGAGAUUCUGCAGGAGUUCGAUCUCAGCUUCUGCUCGCAACAGAGGAUUGAGCAUCA
B7: 46964300_46964420_1447_3pUTR_ENSMUSG00000025041_ENSMUST00000168536|mouse|control|control (ssRNA)
RNA: GGGAGUUCUACAGUCCGACGAUCACAGCAGGUUGAUGAACGAGGCCGCAUAGAGAUCUGCAUAGCGCAUCACUUGGCUGGCAAAGAGUGUCUGCCGGGAGCCGCUGCGGAACAGGCUUCCCAUCAUCCCAUAGCACAUGUCCACAACAGAGGAUUGAGCAUCA
B8: chrX:16864032:16864033:-_ENSG00000102054_ENST00000404022|hu_mus|FALSE|FALSE (ssRNA)
RNA: GGGAGUUCUACAGUCCGACGAUCCAUGAUGUUAUCUUCAGACACAGAGCAAAUGACCCAAGGUUCAUUGGGAUUCCAGCUGAAGUCAGAAAUCUUGGCAGUGUGCCCUCCAUGAAUAAACAGGAGCUCUGGAGGCCCAUCUUCCAACAGAGGAUUGAGCAUCA
B9: chr1:39494447:39494448:+_ENSG00000168653_ENST00000372967|hu_mus|hu_hu_hu_mus_False|68_68 (ssRNA)
RNA: GGGAGUUCUACAGUCCGACGAUCGCACCGAGCGGCGUUCUUAUAGGGCUGUUCUGCGCUUAGGAACGUCAACCAUCGGUCCAGGCUGAUGCCCAGCUUUUUCUGUAUGUCAAGGAAAGGCAUGGCUCUGCAGUGCCCUUGUCACAACAGAGGAUUGAGCAUCA
B10: chr9:110451384:110451385:+_ENSMUSG00000044791_ENSMUST00000153838|mus_mus|FALSE|FALSE (ssRNA)
RNA: GGGAGUUCUACAGUCCGACGAUCAGAAAUCUUAUUAAUUGUUCUUAAUUCACUACCUUUUGAACAAGGAGUCUGCAAACUAAACGAAUGAGAUUGUUUGUUUUCCUCAUUUAAUUCUGUACAACAGAAAGAAUUUUUAAAUUUCAACAGAGGAUUGAGCAUCA
B11: chr8:81716360:81716361:+_ENSMUSG00000071064_ENSMUST00000098614|mus_hu|FALSE|FALSE (ssRNA)
RNA: GGGAGUUCUACAGUCCGACGAUCCAAGUAGGCUCCCCAUCCAUGGCGGGAUGACUGGCAAAGGGAGGUGUAGCACACCUACUAGGUGUGGGGAAGAGGGGCUGGCGUGGAGGGGACUGAGGAGACCAUGGUGUGGACAGACAGCAACAGAGGAUUGAGCAUCA
B12: chr14:89307221:89307222:+_ENSG00000165533_ENST00000346301|hu_mus|hu_hu_hu_mus_False|28_38 (ssRNA)
RNA: GGGAGUUCUACAGUCCGACGAUCUCCUGUUUGGUUAGUGCCAGGGAGCUUCAAAGAUGUGCCAGGGCGUGGGACCUGAGCAAUAGCAUUUUCAUCCAGCAUCAUUUCUGCAAUUCCUUCCUGGUCCACAUCAAUUUCAUCUAUCAACAGAGGAUUGAGCAUCA
B13: chr9:91931296:91931297:+_ENSG00000123975_ENST00000314355|hu_hu|hu_hu_hu_mus_True|78_98 (ssRNA)
RNA: GGGAGUUCUACAGUCCGACGAUCAGAUUAGAUGAUCCCAGAUAAACUUCAUUUUUGUUGAUCUUUUGGAAGAGGUCGUCUAAAGAGAAGAAUAUGCGGUUCUGGCUCAUGAAUCAUGUAAUGAACCCAUCCUAGACUCUGUUGCAACAGAGGAUUGAGCAUCA
B14: 75320184_75320304_6387_CDS_ENSMUSG00000020850_ENSMUST00000102510|mouse|control|control (ssRNA)
RNA: GGGAGUUCUACAGUCCGACGAUCGGCACGAAGAUCAGAUAUGCAGAUGAACUUCUUAAGCACGUUUUUCGGAAGAAUGUACGUAUAACCAGUCUCCUUAAUGUCAUCAGAUGAAACAUAAAUAUGAUUGGUCCGCAGAUGCAGCAACAGAGGAUUGAGCAUCA
B15: 36136323_36136443_5331_3pUTR_ENSG00000100320_ENST00000405409|human|control|control (ssRNA)
RNA: GGGAGUUCUACAGUCCGACGAUCGUACAUAGGAAAAGGAAAGGGAGGGAAGAGGCUUUUGGACAGUAACAUUUCCAAAAAAAUAUAGUGUUUUAUGCAACAGAGAAUCAAGUUUCACUGUGUAUACUACAAAUGGUCAAACAUCAACAGAGGAUUGAGCAUCA
B16: chr11:46405157:46405158:+_ENSG00000110492_ENST00000395566|hu_hu|hu_hu_hu_mus_False|48_68 (ssRNA)
RNA: GGGAGUUCUACAGUCCGACGAUCCCCUCCCCACUUUGGGCACUUGGUGUGGGCGUGAGAGGACAGGAUGAUUGAUUAGAGCUGACAAGCAGACAGAAGGCACUGGUGGGUUAUAUCUUGGGCCUGUGGGAGAGGAGGGCUCCGCAACAGAGGAUUGAGCAUCA
B17: 67885784_67889917_929_CDS_ENSG00000142864_ENST00000370995|human|control|control (ssRNA)
RNA: GGGAGUUCUACAGUCCGACGAUCCCGGUCCUUAUUUUGAAUAGCCUUCCACUCAUCCAAAGUCAUCUCUUUUGGACCCUCCUCUUUUACCUCUUCAACUUCAUUCUCCUUAUUUUCAGUGUCUGCCACUGGAUGAUGUUCUUCCAACAGAGGAUUGAGCAUCA
B18: 4101213_4101333_793_3pUTR_ENSMUSG00000001467_ENSMUST00000001507|mouse|control|control (ssRNA)
RNA: GGGAGUUCUACAGUCCGACGAUCCACAGGUGUUGUCAGCCGACCGUAGACUUCUUCUGCAUUCAGGUCUUCGUUUUUACUAUUGAAGAGCAGCGCAGCUGCAUCACUCCCCAGAAGGUAAGUGAAGGUCUUGCCCACCAUGGUCAACAGAGGAUUGAGCAUCA
B19: chr16:16926518:16926519:+_ENSMUSG00000026181_ENSMUST00000027373|mus_mus|FALSE|FALSE (ssRNA)
RNA: GGGAGUUCUACAGUCCGACGAUCGAGGGGGACUUGAGCUCACAGCCACCCUUCUCCCUGUUCCUUCCCUGAGCCUCUACUAAGCCACCCAUUAUCCUGGCUAGGGGAUUCUUUUGGGAAGAGACUCUGAGGAGGAGGUGGCCACAACAGAGGAUUGAGCAUCA
B20: 25857120_25857240_208_5pUTR_ENSMUSG00000003378_ENSMUST00000003468|mouse|control|control (ssRNA)
RNA: GGGAGUUCUACAGUCCGACGAUCCUCCGAUGCUGGGUGCUGGUGAGGCUGGGGCCGGGGGAGAGGGCAGUCCACUGGGCCCCCUCCCCCGCCGCCGGCGGUGGCCCCCAACUAAUCCAAAACGGUGUCUCCCCAGCAGCGGGGCAACAGAGGAUUGAGCAUCA
B21: chr3:148802587:148802588:-_ENSG00000071794_ENST00000310053|hu_mus|hu_hu_hu_mus_False|1_28 (ssRNA)
RNA: GGGAGUUCUACAGUCCGACGAUCUCCAACAACUUGUCCUCUCAUAGUUCCAAAUAAAACCAAAUCUUGCUCUUCAUCACUCGUUAGGAAGUCAUCUGGAGGAAUAACAUCUUGGAAUUCAAAAUGUGGCAAGAAAGUUGGAUACAACAGAGGAUUGAGCAUCA
B22: 65597685_65604084_320_CDS_ENSMUSG00000037890_ENSMUST00000041892|mouse|control|control (ssRNA)
RNA: GGGAGUUCUACAGUCCGACGAUCUUUUGACCAAAGAAGGAAAGACAUUUGAUCCCUCAUGCCAUUGUCCAGCUGGCUGGUUUUAUUUGUGUUGGCAUCCCAUAGAUAAAUGCAACUAGACUUCUCAGCAAUCACUGCCAGGAUCAACAGAGGAUUGAGCAUCA

molecular target: T1, UNK ZnF1-3 (human, UniProt Q9C0B0 31-174); assay: nsRBNS (natural sequence RNA bind-n-seq); RBNS binding buffer (assumed for nsRBNS): 25 mM Tris pH 7.5, 150 mM KCl, 3 mM MgCl2, 0.01% Triton X-100, 500 ug/ml BSA, 20 U/ml SUPERase-In, 4 C; UNK is unkempt and MSI1 is Musashi-1; names of the RNAs are library labels; protein concentration not given here; high values mean tight binding
T1 sequence: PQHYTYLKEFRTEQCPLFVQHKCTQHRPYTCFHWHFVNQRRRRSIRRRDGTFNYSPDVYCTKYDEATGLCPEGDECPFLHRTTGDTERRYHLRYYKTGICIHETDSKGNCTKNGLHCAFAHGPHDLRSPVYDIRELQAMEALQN

| Binder | binding signal [enrichment R] |
| --- | --- |
| B1 | 0.456 |
| B2 | 1.21 |
| B3 | 2 |
| B4 | 1.6 |
| B5 | 1.77 |
| B6 | 0.874 |
| B7 | 1.13 |
| B8 | 1.01 |
| B9 | 0.565 |
| B10 | 1.36 |
| B11 | 1.9 |
| B12 | 1.11 |
| B13 | 1.09 |
| B14 | 0.922 |
| B15 | 2.59 |
| B16 | 1.99 |
| B17 | 0.423 |
| B18 | 0.897 |
| B19 | 0.485 |
| B20 | 0.769 |
| B21 | 1.28 |
| B22 | 0.979 |
